Data reported in PMC4336329 (PLoS ONE, 2015).
Hit rate of the full screen: of about 310,000 compounds, about 2,200 (0.71%) showed an effect of 50% or more. The effect is printed as a negative number. The list shows a part of the results.

Each compound was assayed against human ether-à-go-go-related gene (hERG) potassium channel (human, UniProt Q12809) (assay: primary screen, population patch clamp on CHO cells stably expressing hERG).
human ether-à-go-go-related gene (hERG) potassium channel, sequence (Q12809 whole entry, looked up): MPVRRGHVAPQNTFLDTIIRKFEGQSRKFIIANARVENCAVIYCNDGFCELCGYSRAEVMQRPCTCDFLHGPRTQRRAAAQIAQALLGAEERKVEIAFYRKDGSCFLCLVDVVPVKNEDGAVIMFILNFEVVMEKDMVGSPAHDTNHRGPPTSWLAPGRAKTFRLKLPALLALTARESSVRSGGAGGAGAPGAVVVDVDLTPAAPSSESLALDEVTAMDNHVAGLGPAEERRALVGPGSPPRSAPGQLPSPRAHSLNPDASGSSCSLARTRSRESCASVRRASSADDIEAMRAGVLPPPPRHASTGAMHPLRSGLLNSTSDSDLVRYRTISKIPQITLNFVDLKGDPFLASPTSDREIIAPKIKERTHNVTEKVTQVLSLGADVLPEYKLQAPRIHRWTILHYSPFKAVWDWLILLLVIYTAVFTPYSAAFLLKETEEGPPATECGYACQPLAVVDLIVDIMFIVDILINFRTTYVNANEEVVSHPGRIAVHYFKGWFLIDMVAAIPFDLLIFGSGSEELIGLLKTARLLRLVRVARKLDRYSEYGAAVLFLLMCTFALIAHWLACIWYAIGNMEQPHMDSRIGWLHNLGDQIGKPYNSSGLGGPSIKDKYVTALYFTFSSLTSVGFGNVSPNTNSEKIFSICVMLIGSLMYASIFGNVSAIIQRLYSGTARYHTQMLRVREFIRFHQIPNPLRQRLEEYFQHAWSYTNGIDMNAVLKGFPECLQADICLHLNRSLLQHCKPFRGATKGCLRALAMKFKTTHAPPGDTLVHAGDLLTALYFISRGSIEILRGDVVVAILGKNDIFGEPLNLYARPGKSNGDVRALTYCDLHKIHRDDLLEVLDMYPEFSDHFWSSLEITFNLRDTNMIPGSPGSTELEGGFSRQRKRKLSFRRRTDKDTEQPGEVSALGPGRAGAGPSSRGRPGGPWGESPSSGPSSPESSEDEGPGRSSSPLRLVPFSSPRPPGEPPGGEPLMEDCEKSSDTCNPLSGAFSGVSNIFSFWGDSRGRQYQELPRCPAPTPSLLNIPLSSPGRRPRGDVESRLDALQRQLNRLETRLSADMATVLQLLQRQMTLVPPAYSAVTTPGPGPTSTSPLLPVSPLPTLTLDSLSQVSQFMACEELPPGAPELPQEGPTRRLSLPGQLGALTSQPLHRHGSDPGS

Structure (SMILES)	hERG current change (%, negative = inhibition) at 1uM [%]
C[C@@H]1NC(=O)[C@@]2(C)[C@@H](c3ccccc3)[C@H]3COc4ccc(Cl)cc4[C@@H]3N2C1=O	14.1
Cc1cc(C)nc(NC(=O)c2ccc(Cl)c([N+](=O)[O-])c2)n1	2.43
C/C(=N\OCC(=O)NCC(F)(F)F)c1cc2ccccc2o1	1.4
O=C(Nc1ccc(F)cc1)c1ccc(S(=O)(=O)NCc2cccnc2)cc1	3.07
COc1cc(/C=C\C(=O)NCc2ccc3[nH]c(C)cc3c2)cc(OC)c1OC	19.7
CN1CCN(CCC(=O)N2c3ccccc3Sc3ccc(Cl)cc32)CC1	-14.2
CN(CC(=O)Nc1cccc(F)c1)C(=O)CCCN1C(=O)c2cccc3cccc(c23)C1=O	6.25
Cc1[nH]n(-c2ccccc2)c(=O)c1CCOC(=O)c1ccc(C(F)(F)F)cc1	17.8
Cc1cc(NC(=O)CCCC(=O)O)nc(C)n1	2.11
CC1CN(C(=O)c2ccc(Cl)c(S(=O)(=O)NCc3ccco3)c2)CC(C)O1 (stereo not drawn)	13.5
CCOC(=O)[C@@]1(C#N)[C@@H]2C=CC(C(N)=O)=CN2[C@@H](C(N)=O)[C@@H]1c1cccc(Cl)c1	1.97
CN1C(=O)CSC1=S	13
CN(CC(=O)Nc1ccccc1Cl)C(=O)COC(=O)/C=C/c1ccccc1	8.3
O=C(NNC(=O)C1CC(=O)N(Cc2ccccc2)C1)c1ccc(F)cc1 (stereo not drawn)	8.85
CCOC(=O)N1CN(C(=O)OCC)CN(C(=O)OCC)C1	12.3
O=S(=O)(Cc1ccccc1)NCC1CCCO1 (stereo not drawn)	-0.43
CSc1ccc(C2=CC(=O)C[C@H](c3ccc4c(c3)OCO4)C2)cc1	11
Cc1ccc(Sc2c(C)nn(C(=O)CNS(=O)(=O)c3ccc(F)cc3)c2C)cc1	4.31
Cc1ccc2[nH]c3nc(SCCN4CCOCC4)nnc3c2c1	11.8
CCc1ccc(-c2cc(C)no2)cc1S(=O)(=O)Nc1cccc(CN2CCCC2)c1	2.74
O=C1Nc2ccccc2C(=O)N2[C@H](c3ccc(F)cc3)[C@@H]3C(=O)N(Cc4ccccc4)C(=O)[C@@H]3[C@H]12	4.1
CC1(C)[N+]([O-])=C2C(=[N+]([O-])C1(C)C)c1ccccc1/C2=N\O	8.31
CC1(C)Cc2nc3sc(C(=O)NCCCO)c(N)c3cc2CS1	10
CN(Cc1ccccc1)C(=O)CSc1nc2c(c(C(F)(F)F)n1)CCc1ccccc1-2	15.7
CCCCN(Cc1cc2cccc(C)c2[nH]c1=O)S(C)(=O)=O	11.7
Cc1ccc(C(=O)NCCN2CCCC2)cc1.Cl	3.56
Fc1cccc(Cl)c1CSc1ccc2nnc(-c3ccccn3)n2n1	1.37

Structure (SMILES)	hERG current change (%, negative = inhibition) at 1uM [%]
COc1cc(OC)cc(C(=O)NC(=S)N(Cc2ccccc2)C(C)C)c1	10.7
O=C(c1ccc(OC2CCN(CCO)CC2)cc1)N1CCCC1	10.7
Cc1csc(Sc2ccc(C(=O)OCC(=O)Nc3ccc(F)cc3[N+](=O)[O-])cc2[N+](=O)[O-])n1	-0.541
CN1CCc2c(sc(NC(=O)c3ccc(S(=O)(=O)N4CCCC4)cc3)c2C(N)=O)C1	7.47
COc1cc(/C=C/C(=O)Nc2nnc(CC(C)C)s2)cc(OC)c1OC	-4.01
COc1cccc(NS(=O)(=O)c2cc3[nH]c(=O)c(=O)[nH]c3cc2C)c1	20.3
CCc1cc(=O)oc2cc(O[C@@H]3O[C@H](CO)[C@@H](O)[C@H](O)[C@H]3O)c(Cl)cc12	4.32
COC(=O)N1CCN(CCc2ccccc2)CC1	8.11
CC(CCc1ccccc1)OS(N)(=O)=O (stereo not drawn)	9.04
CCN(CC)C(=O)Cn1cc(S(=O)(=O)CC(=O)NCc2ccc(C)cc2)c2ccccc21	4.18
O=[n+]1cc(-c2cc3ccccc3o2)n([O-])c2c1CCCC2	8.6
Cc1cc(NC(=O)CSc2nnc(-c3ccccc3C)n2C)no1	21.7
CC(C)N(Cc1cn(C)nc1-c1cccc(Cl)c1)Cc1nccn1C	10.2
Cc1ccc(NS(=O)(=O)c2cccc(C(=O)O)c2)cc1S(=O)(=O)N1CCCCC1	8.67
COC(=O)N1C(=O)[C@@](CC(C)C)(c2ccccc2)N1C(=O)OC	-0.755
CCCOC(=O)c1cccc(NC(=O)COc2ccc([N+](=O)[O-])cc2)c1	-12.8
O=C(c1ccco1)N1CCC(c2nc3c(nnn3Cc3ccccc3Cl)c(=O)[nH]2)CC1	0.457
CC(C)CN(CC(C)C)S(=O)(=O)N1CCC(C(=O)NCc2ccco2)CC1	16.7
O=C1CSC(c2cccc([N+](=O)[O-])c2)N1Cc1ccccc1 (stereo not drawn)	18.9
O=C(NCCCn1ccnc1)c1nc(Cn2cc(Br)cn2)no1	8.89
O=C(c1ccc(Cl)cc1)[C@@H]1[C@@H]2C(=O)N(c3ccccc3)C(=O)[C@@H]2C2c3ccccc3C=NN21 (stereo partly drawn)	3.43
O=S(=O)(c1ccc(NC(=S)NCc2cccnc2)cc1)N1CCCCC1	6.23
O=C(CSc1ccc2ccccc2n1)NC1CC1	13.4
Nc1nc(CSC(=S)N2CCOCC2)nc(Nc2ccc(F)cc2)n1	2.72
CC(NC(=O)Cc1ccc(F)cc1)C(c1cccs1)N1CCN(C)CC1 (stereo not drawn)	8.25
CCOc1ccccc1N1CCN(C(=O)c2cc(C)oc2C)CC1	8.21
COc1ccc(C(=O)c2c3ccc(C(F)(F)F)cc3[n+]([O-])n2CCCC(N)=O)cc1	-21.6
